# Several values for one entry are separate records, joined by “and”; a condition that tells them apart may be missing. Equal values may be shown once. Where a name gives a salt, the structure may show the parent alone. In all, about 5,800 compounds went through this assay and about 620 (11%) showed activity.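 The calls were made as follows: active = score above a cut-off or among the top three wells of a plate; in these data no inactive exceeds 0.85.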 Only a part is listed here, and it is no random draw.
# System: primary human hepatic stellate cells (donor 1)
# Test: scaled lipid accumulation score (0 = DMSO-like, 1 = nortriptyline-like); higher = stronger HSC inactivation (lipid re-accumulation), active = hit call of the paper
# Conditions: 48 h
# Method: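 Primary lipid accumulation screen in primary human hepatic stellate cell myofibroblasts (donor 1, passage 8) in 384-well plates. 100 nL of library compound was pin-transferred into 30 µL medium in duplicate, and cells were treated for 48 h. The 'Scaled' score combines distance from plate baseline, toxicity and reproducibility penalties, and is normalised to nortriptyline (positive) and DMSO (negative) controls on each plate. A hit is defined as scaled >0.85 or among the top 3 wells per plate.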
# [1] = library stock concentration: 10 mM
# [2] = library stock concentration: 3.33 mM
# [3] = library stock concentration: 1 mM
# [4] = library stock concentration: 80 uM
# [5] = library stock concentration: 400 uM
# [6] = library stock concentration: 2 mM
smiles,measurement,setting,value
"OC[C@H]1O[C@@H](n2cnc3c(N[C@H]4CCC[C@@H]4O)ncnc32)[C@@H](O)C1O (stereo partly drawn) [Adenosine, N-(2-hydroxycyclopentyl)-, (1S-trans)- [CAS]]",scaled lipid accumulation score,[1],inactive: ≤ 0
CCCCOc1cc(CC2CNC(=O)N2)ccc1OC (stereo not drawn),scaled lipid accumulation score,[1],inactive: 0.187 and inactive: ≤ 0
same,scaled lipid accumulation score,library stock concentration: 18 mM,inactive: ≤ -0.006
COc1cc([C@@H]2c3cc4c(cc3[C@@H](O[C@@H]3O[C@@H]5CO[C@@H](c6cccs6)O[C@H]5[C@H](O)[C@H]3O)[C@H]3COC(=O)[C@H]23)OCO4)cc(OC)c1O [Teniposide],scaled lipid accumulation score,library stock concentration: 3 mM,inactive: ≤ 0
same,scaled lipid accumulation score,[2],inactive: 0.159
same,scaled lipid accumulation score,[1],inactive: 0.484 and inactive: 0.087
O=c1ccc2ccccc2o1 [Coumarin],scaled lipid accumulation score,[2],inactive: ≤ 0
same,scaled lipid accumulation score,[1],inactive: ≤ 0 and inactive: 0.012
CCc1cc2c(cc1N1CCC(N3CCOCC3)CC1)C(C)(C)c1[nH]c3cc(C#N)ccc3c1C2=O,scaled lipid accumulation score,[1],active: 1.17
COc1cc2c3cc1Oc1c(OC)c(OC)cc4c1[C@@H](Cc1ccc(OC(=O)c5ccc([N+](=O)[O-])cc5)c(c1)Oc1ccc(cc1)C[C@@H]3N(C)CC2)N(C)CC4 [E6 berbamine],scaled lipid accumulation score,library stock concentration: 6.6 mM,active: 0.933
CCCCCCCCCCCCCCCCOC[C@H](COP(=O)([O-])OCC[N+](C)(C)C)OC(=O)NC [Methylcarbamyl PAF C-16],scaled lipid accumulation score,[3],inactive: ≤ 0
CN(C)CCCN1c2ccccc2Sc2ccc(Cl)cc21 [Chlorpromazine],scaled lipid accumulation score,[1],inactive: 0.466
CN(C)CCCN1c2ccccc2Sc2ccc(Cl)cc21,scaled lipid accumulation score,[1],inactive: 0.711
CN(C)CCCN1c2ccccc2Sc2ccc(Cl)cc21 [Chlorpromazine hydrochloride],scaled lipid accumulation score,,inactive: 0.717
same,scaled lipid accumulation score,[1],inactive: 0.259
CN(C)CCCN1c2ccccc2Sc2ccc(Cl)cc21 [Chlorpromazine HCl],scaled lipid accumulation score,[2],inactive: 0.38
same,scaled lipid accumulation score,library stock concentration: 6.3 mM,inactive: 0.53
CO[C@H]1C[C@H](O[C@H]2[C@H](C)[C@@H](O[C@@H]3O[C@H](C)C[C@H](N(C)C)[C@H]3O)[C@@H](C)C[C@@]3(CO3)C(=O)[C@H](C)[C@@H](O)[C@@H](C)[C@@H](C)OC(=O)[C@@H]2C)O[C@@H](C)[C@@H]1O [Oleandomycin phosphate],scaled lipid accumulation score,,inactive: ≤ 0
same,scaled lipid accumulation score,[1],inactive: ≤ 0
O=C(O)[C@H]1O[C@@H](Oc2cc3oc(-c4ccccc4)cc(=O)c3c(O)c2O)[C@H](O)[C@@H](O)[C@@H]1O [Baicalin],scaled lipid accumulation score,[2],inactive: 0.015
same,scaled lipid accumulation score,[1],inactive: ≤ 0
CCN1CCC(n2cc(CNc3cc(Cl)c4ncc(C#N)c(Nc5ccc(F)c(Cl)c5)c4c3)nn2)CC1,scaled lipid accumulation score,[4],inactive: ≤ -0.009
same,scaled lipid accumulation score,[5],inactive: ≤ -0.009
same,scaled lipid accumulation score,[6],inactive: ≤ -0.009
Nc1ccc(S(=O)(=O)Nc2ccccn2)cc1 [Sulfapyridine],scaled lipid accumulation score,,inactive: ≤ 0
same,scaled lipid accumulation score,library stock concentration: 8 mM,inactive: ≤ 0
same,scaled lipid accumulation score,[1],inactive: ≤ 0
N#Cc1c(-c2ccccc2)no[n+]1[O-] [Furoxan],scaled lipid accumulation score,library stock concentration: 26.7 mM,active: 1
O=c1[nH]c(=O)c2ccccc2o1,scaled lipid accumulation score,[1],inactive: ≤ 0
Nc1ccn([C@@H]2O[C@H](CO)[C@@H](O)[C@@H]2O)c(=O)n1 [Cytarabine],scaled lipid accumulation score,[1],inactive: ≤ 0
"Nc1ccn([C@@H]2O[C@H](CO)[C@@H](O)[C@@H]2O)c(=O)n1 [2(1H)-Pyrimidinone, 4-amino-1-?-D-arabinofuranosyl- [CAS]]",scaled lipid accumulation score,[1],inactive: ≤ 0
Nc1ccn([C@@H]2O[C@H](CO)[C@@H](O)[C@@H]2O)c(=O)n1 [Cytosine-1-beta-D-arabinofuranoside hydrochloride],scaled lipid accumulation score,[1],inactive: ≤ 0
N=C(NC(=O)c1nc(Cl)c(N)nc1N)Nc1ccccc1 [Phenamil],scaled lipid accumulation score,library stock concentration: 16.4 mM,active: 1.07
O=S1(=O)c2cccc3cccc(c23)N1CCCN1CCN(c2ccc(F)cc2)CC1 [Fananserin],scaled lipid accumulation score,[1],inactive: 0.048
Cc1ccc(NC(=O)c2ccc(CN3CCN(C)CC3)cc2)cc1Nc1nc(-c2cccnc2)cs1 [Masitinib (AB1010)],scaled lipid accumulation score,[2],active: 1.13
same,scaled lipid accumulation score,[1],active: 0.856
CC#CCC(C)[C@@H](O)/C=C/[C@@H]1[C@H]2C/C(=C\CCCC(=O)O)C[C@H]2C[C@H]1O (stereo partly drawn) [5-cis-15(R)-Iloprost],scaled lipid accumulation score,[3],inactive: ≤ 0
COc1ccnc(C[S+]([O-])c2nc3cc(OC(F)F)ccc3[nH]2)c1OC (stereo not drawn),scaled lipid accumulation score,[1],inactive: ≤ 0
COc1ccnc(C[S+]([O-])c2nc3cc(OC(F)F)ccc3[nH]2)c1OC (stereo not drawn) [Pantoprazole],scaled lipid accumulation score,library stock concentration: 5.2 mM,inactive: 0.015 and inactive: ≤ 0
same,scaled lipid accumulation score,[1],inactive: ≤ -0.027
Cc1cc(C)c(S(=O)(=O)n2cc(C)cc2C)c(C)c1,scaled lipid accumulation score,[2],inactive: ≤ -0.009
same,scaled lipid accumulation score,[1],inactive: ≤ 0
Cc1[nH]c(C=C2C(=O)Nc3ccc(S(=O)(=O)N(C)c4cccc(Cl)c4)cc32)c(C)c1C(=O)N1CCN(C)CC1,scaled lipid accumulation score,[2],active: 1.39
same,scaled lipid accumulation score,[1],active: 1.27
Cc1[nH]c2ccccc2c1CCNCc1ccc(/C=C/C(=O)NO)cc1 [Panobinostat (LBH589)],scaled lipid accumulation score,[2],inactive: 0.728
same,scaled lipid accumulation score,[1],inactive: 0.587
CCCCC/C=C\C/C=C\C/C=C\C/C=C\CCCC(=O)C(F)(F)F [Arachidonyl Trifluoromethyl Ketone],scaled lipid accumulation score,[3],inactive: ≤ 0
CC(=O)N[C@@H](C=O)[C@@H](O)[C@H](O)[C@H](O)CO [Acetylglucosamine],scaled lipid accumulation score,[1],inactive: ≤ 0
C(/c1c2cccc1)(=C/CCN(C)C)\c3c(cccc3)C=C2.Cl [Cyclobenzaprine hydrochloride],scaled lipid accumulation score,,active: 0.86
O=C1C(=O)c2ccccc2C(O)=C1C1CCC(c2ccc(Cl)cc2)CC1 (stereo not drawn) [Atovaquone],scaled lipid accumulation score,[2],inactive: ≤ 0
same,scaled lipid accumulation score,[1],inactive: ≤ 0
CCN(CC)CCNC(=O)c1c(C)[nH]c(/C=C2\C(=O)Nc3ccc(F)cc32)c1C.O=C(O)C[C@H](O)C(=O)O [Sunitinib malate],scaled lipid accumulation score,[6],active: 0.997
CCOC(=O)c1[nH]c2cc(Cl)ccc2c1C(C(=O)NC(C)(C)C)N(C=O)Cc1ccc(Cl)cc1 (stereo not drawn),scaled lipid accumulation score,[2],inactive: ≤ -0.009
same,scaled lipid accumulation score,[1],inactive: 0.547
CCCCN1CCCCC1C(=O)Nc1c(C)cccc1C (stereo not drawn) [Bupivacaine HCl],scaled lipid accumulation score,[2],inactive: ≤ 0
same,scaled lipid accumulation score,library stock concentration: 6.9 mM,inactive: ≤ 0
same,scaled lipid accumulation score,[1],inactive: ≤ 0
CCCCN1CCCCC1C(=O)Nc1c(C)cccc1C (stereo not drawn) [Bupivacaine hydrochloride],scaled lipid accumulation score,,inactive: ≤ 0
same,scaled lipid accumulation score,library stock concentration: 6.2 mM,inactive: ≤ 0
same,scaled lipid accumulation score,[1],inactive: ≤ -0.027
CCOC(=O)c1ccc(N=Nc2ccc(O)c(CC(=O)O)c2)cc1,scaled lipid accumulation score,[3],inactive: ≤ 0
CCOC(=O)NNc1nncc2ccccc12 [Todralazine hydrochloride],scaled lipid accumulation score,,inactive: 0.065
same,scaled lipid accumulation score,[1],inactive: ≤ 0
CCCCCCCCCCCCCCCCCCCCCCCCCCCCCCO [n-Triacontanol],scaled lipid accumulation score,[3],inactive: 0.026
C=C1/C(=C\C=C2/CCC[C@]3(C)[C@@H]([C@H](C)/C=C/[C@H](C)C(C)C)CC[C@@H]23)C[C@@H](O)C[C@@H]1O [Doxercalciferol],scaled lipid accumulation score,[2],inactive: ≤ 0
same,scaled lipid accumulation score,[1],inactive: ≤ 0
CC[C@@H](C(=O)[C@@H](C)[C@@H](O)[C@H](C)CCc1ccc(C)c(O)c1C(=O)O)[C@H]1O[C@](CC)([C@H]2CC[C@](O)(CC)[C@H](C)O2)C[C@@H]1C [Lasalocid sodium salt],scaled lipid accumulation score,,inactive: 0.439
CC[C@@H](C(=O)[C@@H](C)[C@@H](O)[C@H](C)CCc1ccc(C)c(O)c1C(=O)O)[C@H]1O[C@](CC)([C@H]2CC[C@](O)(CC)[C@H](C)O2)C[C@@H]1C [Lasalocid sodium],scaled lipid accumulation score,[1],inactive: 0.665
C[C@H]1O[C@@H](Oc2c(-c3cc(O)c(O)c(O)c3)oc3cc(O)cc(O)c3c2=O)[C@@H](O)[C@@H](O)[C@@H]1O [Myricitrin],scaled lipid accumulation score,[2],inactive: ≤ 0
same,scaled lipid accumulation score,[1],inactive: 0.154
O=C(O)CCC/C=C\C[C@@H]1[C@@H](/C=C/[C@@H](O)COc2cccc(Cl)c2)[C@H](O)C[C@@H]1O [(+)-Cloprostenol],scaled lipid accumulation score,[3],inactive: ≤ 0
Cc1ccc2c(=O)c3cccc(CC(=O)O)c3oc2c1C [DMXAA (Vadimezan)],scaled lipid accumulation score,[2],inactive: ≤ 0
same,scaled lipid accumulation score,[1],inactive: ≤ 0
CC(C)(C)c1ccc(C(O)CCCN2CCC(C(O)(c3ccccc3)c3ccccc3)CC2)cc1 (stereo not drawn) [Terfenadine],scaled lipid accumulation score,,inactive: 0.258
same,scaled lipid accumulation score,[1],inactive: 0.153
CC(COc1ccccc1)NC(C)C(O)c1ccc(O)cc1 (stereo not drawn) [Duvadilan],scaled lipid accumulation score,[1],inactive: 0.493
CC(COc1ccccc1)NC(C)C(O)c1ccc(O)cc1 (stereo not drawn) [Isoxsuprine hydrochloride],scaled lipid accumulation score,,inactive: 0.185
same,scaled lipid accumulation score,library stock concentration: 5.9 mM,inactive: 0.106
same,scaled lipid accumulation score,[1],inactive: 0.237
C[C@@H]1CCNC(=O)c2cc3ccc(C(=O)Nc4nc5ccccc5n4CCCN(C)C)cc3n21,scaled lipid accumulation score,[4],inactive: ≤ -0.001
same,scaled lipid accumulation score,[5],inactive: ≤ -0.001
same,scaled lipid accumulation score,[6],inactive: ≤ -0.001
same,scaled lipid accumulation score,[1],inactive: 0.117
Cc1nc(-c2ccc(OCC(C)C)c(C#N)c2)sc1C(=O)O [Febuxostat],scaled lipid accumulation score,[4],inactive: ≤ 0
same,scaled lipid accumulation score,[5],inactive: ≤ 0
same,scaled lipid accumulation score,[6],inactive: ≤ 0
same,scaled lipid accumulation score,[2],inactive: 0.019
same,scaled lipid accumulation score,[1],inactive: ≤ 0 and inactive: 0.033
Cc1nc(-c2ccc(OCC(C)C)c(C#N)c2)sc1C(=O)O,scaled lipid accumulation score,[1],inactive: ≤ 0
COc1ccc(CC2c3cc(OC)c(OC)cc3CC[N+]2(C)CCC(=O)OCCCCCOC(=O)CC[N+]2(C)CCc3cc(OC)c(OC)cc3C2Cc2ccc(OC)c(OC)c2)cc1OC (stereo not drawn) [Atracurium Besylate],scaled lipid accumulation score,[2],inactive: ≤ 0
same,scaled lipid accumulation score,[1],inactive: 0.109
COc1ccc(CC2c3cc(OC)c(OC)cc3CC[N+]2(C)CCC(=O)OCCCCCOC(=O)CC[N+]2(C)CCc3cc(OC)c(OC)cc3C2Cc2ccc(OC)c(OC)c2)cc1OC (stereo not drawn) [Atracurium besylate],scaled lipid accumulation score,,inactive: ≤ 0
COc1ccc(CC2c3cc(OC)c(OC)cc3CC[N+]2(C)CCC(=O)OCCCCCOC(=O)CC[N+]2(C)CCc3cc(OC)c(OC)cc3C2Cc2ccc(OC)c(OC)c2)cc1OC (stereo not drawn),scaled lipid accumulation score,[1],inactive: ≤ 0
